Test results: the antibiotic and cytotoxicity screens of Wong et al. (2023)
This is one part of the list.

System: HepG2
Assay: cytotoxicity call (relative viability < 0.9)
Settings: 10 µM

| Structure (SMILES) | cytotoxicity call |
| --- | --- |
| C[C@H](O)C#Cc1cnc2c(c1)C(=O)N([C@@H](C)CO)C[C@@H](C)[C@@H](CN(C)C(=O)CN1CCOCC1)O2 | inactive |
| C[C@@H]1CN([C@@H](C)CO)C(=O)c2cccc(NC(=O)c3nc4ccccc4s3)c2O[C@@H]1CN(C)C(=O)Nc1ccc(F)cc1 | active |
| C[C@H]1CN([C@@H](C)CO)C(=O)c2cc(C#CC3(O)CCCC3)cnc2O[C@H]1CN(C)C(=O)Cc1ccncc1 | inactive |
| Nc1nc(=O)c2[nH]c(=O)cnc2[nH]1 | inactive |
| Cc1ccc(S(=O)(=O)N2C[C@@H](O)COC[C@@H]3O[C@@H](CC(=O)NCc4ccc(Cl)c(Cl)c4)CC[C@H]32)cc1 | active |
| C[C@@H]1CN([C@@H](C)CO)C(=O)c2cc(NC(=O)Cc3ccccc3)ccc2O[C@@H](C)CCCCO[C@@H]1CN(C)C(=O)Cc1ccccc1 | inactive |
| COc1cccc(C#Cc2cnc3c(c2)C(=O)N([C@@H](C)CO)C[C@H](C)[C@@H](CN(C)C(=O)C2CCOCC2)O3)c1 | inactive |
| CCOc1ccc2ccccc2c1C(=O)NC1C(=O)N2C1SC(C)(C)C2C(=O)[O-].[Na+] (stereo unspecified) | inactive |
| Cc1ccc(S(=O)(=O)N(C)C[C@H]2Oc3ccc(NC(=O)c4ccncc4)cc3CC(=O)N([C@H](C)CO)C[C@H]2C)cc1 | inactive |
| C[C@@H]1CCCCO[C@H](CN(C)Cc2ccc(Cl)c(Cl)c2)[C@H](C)CN([C@@H](C)CO)C(=O)c2cc(NS(=O)(=O)c3ccccc3)ccc2O1 | inactive |
| CCCN(C)C[C@@H]1OCCCC[C@@H](C)Oc2ccc(NC(=O)C3CCCCC3)cc2C(=O)N([C@H](C)CO)C[C@@H]1C | inactive |
